Where “and” joins values, the source holds several entries; their conditions need not be identical. Equal entries are not always repeated. This is one part of the list. Further columns of the screen follow, without active or inactive calls.

Our source for the activity change, negative = inhibition values is PubChem BioAssay AID1745853 (National Center for Advancing Translational Sciences (NCATS), 2022).

Common to all, as to experiment: Primary Screen for Target Class Profiling of Small Molecule Inhibitors of Methyltransferases
The target in test [1] is Glycine N-methyltransferase (Homo sapiens) (UniProt Q14749). Particulars: purified enzyme, MTase-Glo SAH luminescence; measured here: GNMT inhibition; at 40 µM; stronger effect = lower value. In a few lines:
(§1)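 Each enzyme was reacted with SAM and its substrate, with compounds tested once at 40 uM; SAH formed was read by MTase-Glo luminescence.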

Test [2] deals with Guanidinoacetate N-methyltransferase (Homo sapiens) (UniProt Q14353). The settings on record: purified enzyme, MTase-Glo SAH luminescence; measured here: GAMT inhibition; at 40 µM; stronger effect = lower value. The method in brief:
as §1

Test [3] addresses Histamine N-methyltransferase (Homo sapiens) (UniProt P50135). The settings on record: purified enzyme, MTase-Glo SAH luminescence; measured here: HNMT inhibition; at 40 µM; stronger effect = lower value. In a few lines:
as §1

Test [4] concerns the target Nicotinamide N-methyltransferase (Homo sapiens) (UniProt P40261). Particulars: purified enzyme, MTase-Glo SAH luminescence; measured here: NNMT inhibition; at 40 µM; stronger effect = lower value. In a few lines: as §1
In test [5] the target is Phenylethanolamine N-methyltransferase (Homo sapiens) (UniProt P11086). Particulars: purified enzyme, MTase-Glo SAH luminescence; measured here: PNMT inhibition; at 40 µM; stronger effect = lower value. The method in brief: as §1
% is scaled to controls: 0 for no effect and ±100 for the full control effect.

As for `CCN(CC)C(=O)Nc1ccc(OCC(O)CNC(C)(C)C)c(C(C)=O)c1` (stereo not drawn), the activity change, negative = inhibition in test [1] is 4.62%; in test [2], 3.84%; in test [3], 4.89%; in test [4], -8.49%; in test [5] it was 0.944%.
Taken in the same sequence, the figures for `CCC(C)NC(=O)c1ccc2c(=O)n(C(C)C)c3nn(CC(=O)NCc4ccccc4)c(=O)n3c2c1` (stereo not drawn) were 3.34%, 1.31%, 2.47%, 0.298% and 2.18%.
Taken in the same sequence, the figures for `CNC(=O)N1CCC(C2CCN(C(=O)Cc3c(F)cccc3Cl)C2)CC1` (stereo not drawn) were -1.54%, -7.3%, 2.6%, -4.81% and 1.51%.
For `Cc1ccc(CNC(=O)c2cc3n(n2)CC(C)(C(=O)NCc2ccccc2)N(C)C3=O)cc1` (stereo not drawn) the same measures were 7.07%, 0%, 4.99%, 10.9% and 3.61%.
On to `O=C(Cn1nc2n(Cc3ccc(F)cc3)c(=O)c3ccccc3n2c1=O)Nc1cc(F)ccc1F`, for which the activity change, negative = inhibition in test [1] is 1.05%; in test [2] it was 2.88%; in test [3], 1.95%; in test [4], -0.344%; in test [5] it was 0.864%.
Taken in the same sequence, the figures for `COc1ccc(NC(=O)C2C[C@H](C)CC[C@H]2C(C)C)cc1` (stereo partly drawn) were -1.85%, -5.99%, 10.6%, -12.5% and -0.722%.
For `CCCn1c(=O)c2ccccc2n2c(=O)n(CC(=O)Nc3ccc4c(c3)OCO4)nc12` the same measures were 1.39%, 0%, 7.28%, -4.8% and 2.99%.
Regarding `Cc1cc(NC(=O)NCCN2CCC(O)(Cc3ccccc3)CC2)c2ccccc2n1`, the activity change, negative = inhibition in test [1] was 5.46%; in test [2], 5.01%; in test [3], -56.4%; in test [4], -13.3%; in test [5], -1.02%.
Taken in the same sequence, the figures for `O=C(Nc1cccc(F)c1)N1Cc2[nH]cnc2C[C@H]1c1nc(-c2ccncc2)no1` were -7.77%, -3.11%, -7.21%, -4.73% and -1.44%.
For `O=C(/C=C/c1ccc(O)cc1)OC[C@]12O[C@H]1[C@@H](O)[C@@H]1C=CO[C@@H](O[C@@H]3O[C@H](CO)[C@@H](O)[C@H](O)[C@H]3O)[C@@H]12`, the activity change, negative = inhibition was 1.82% in test [1]; 5.12% in test [2]; 7.32% in test [3]; -7.36% in test [4]; 1.06% in test [5].
Consider `CC1CCCC(NC(=O)C2(C)Cn3c(cc4occc43)C(=O)N2Cc2ccc3c(c2)OCO3)C1C` (stereo not drawn), for which the activity change, negative = inhibition in test [1] is -11.1%; in test [2], 2.79%; in test [3], -10.7%; in test [4], -14.7%; in test [5] it was -8.69%.
Taken in the same sequence, the figures for `COc1ccc(CNC(=O)[C@@H]2Cc3nc[nH]c3CN2C(=O)NC(C)C)cc1` were -4.54%, -0.556%, -1.39%, -5.88% and 10.4%.
Turning to `CN1CCC(OC2CCN(C(=O)COc3ccc(Cl)cc3)CC2)CC1`, the activity change, negative = inhibition in test [1] was -3.42%; in test [2], -3.71%; in test [3], -15.9%; in test [4], -6.88%; in test [5] it was -2.34%.
Taken in the same sequence, the figures for `Cc1cc(C)cc(N2C(=O)c3ccc(-c4ccco4)n3CC2(C)C(=O)NC2CCCC2)c1` (stereo not drawn) were -22.1%, -5.1%, 4.4%, -8.36% and -6.48%.
Turning to `COc1cccc(CC(=O)N2CCCC3(C2)NC(=O)N(Cc2cccc(Cl)c2)C3=O)c1` (stereo not drawn), the activity change, negative = inhibition in test [1] was -3.6%; in test [2], -7.71%; in test [3], -1.24%; in test [4], -11.9%; in test [5], 4.43%.
`COc1ccc(OC)c2c1cc1n2CC(C)(C(=O)NC2CCCCC2)N(Cc2ccco2)C1=O` (stereo not drawn): the activity change, negative = inhibition in test [1] was -12%; in test [2] it was 1.19%; in test [3] it was -2.99%; in test [4], -13.7%; in test [5] it was -17%.
For `N[C@H]1CONC1=O`, the activity change, negative = inhibition is 2.19% in test [1]; 14.8% in test [2]; 2.83% in test [3]; -2.12% in test [4]; 9.24% in test [5].
As for `CCCc1ccc(OCC(=O)N(Cc2nc(-c3cccnc3)no2)C(C)C)cc1`, the activity change, negative = inhibition in test [1] is -4.29%; in test [2], 3.59%; in test [3] it was 8.02%; in test [4] it was -21.5%; in test [5], -3.72%.
Taken in the same sequence, the figures for `O=C(/C=C/c1ccc(O)cc1)N[C@@H](Cc1ccc(O)cc1)C(=O)O` were 2.11%, 5.44%, 6.88%, -7.94% and 3.3%.
`C=C[C@@](C)(O)CC[C@@H]1[C@@]2(C)CCCC(C)(C)[C@@H]2CC[C@@]1(C)O`: the activity change, negative = inhibition in test [2] was 2.98% and 10.5%; in test [4], -26.6% and -12.1%; in test [5], -1.12% and 3.38%.
In the case of `CCCn1c(=O)c2ccccc2n2c(SCc3ccccc3Cl)nnc12`, the activity change, negative = inhibition in test [1] was -12.5%; in test [2], 4.32%; in test [3], -5.73%; in test [4] it was -14.7%; in test [5], 2.22%.
For `CCC(C)/C=C(C)/C=C/C1=CC2=CC(=O)C(C)(O)C(OC(C)=O)C2CO1` (stereo not drawn) the same measures were -3%, -1.44%, 3.73%, -11.4% and -8.96%.
Taken in the same sequence, the figures for `C=CC(C)(O)CC/C=C(/C)COC(=O)C(C)C1CCC(C)(C=C)O1` (stereo not drawn) were 2.13%, -7.4%, 2.2%, -19.4% and -1.01%.
For `CCn1c(CC2CCN(Cc3ccccc3C#N)CC2)nn(C)c1=O`, the activity change, negative = inhibition in test [1] was -4.58%; in test [2], -4.53%; in test [3], -2.32%; in test [4] it was -4.79%; in test [5], 0.089%.
For `Cc1ccc(C)c(Cn2nc3n(CC(C)C)c(=O)c4ccc(C(=O)NC5CCCC5)cc4n3c2=O)c1`, the activity change, negative = inhibition in test [1] stood at 5.8%; in test [2], 1.97%; in test [3], 10.9%; in test [4], 6.74%; in test [5], 8.53%.
Taken in the same sequence, the figures for `CC1CCC(NC(=O)C2(C)Cn3c(nc4ccccc43)C(=O)N2Cc2cccs2)CC1` (stereo not drawn) were -9.89%, -9.93%, 1.09%, -17.8% and -8.3%.
For `CC/C=C\[C@H](O)[C@H](O)C1=C(C)C(=O)[C@]2(O1)C(=O)N[C@@](O)(C(=O)c1ccccc1)[C@@H]2O` the same measures were -0.212%, 3.57%, 3.18%, -9.18% and 3.08%.
For `CC(C)[C@@](O)(c1ccc2cc(OC(F)F)c(OC(F)F)cc2c1)c1cn[nH]n1` the same measures were -2.99%, 8.66%, 9.55%, -3.91% and 7.84%.
Regarding `Cc1ccc(Cn2c(=O)c3ccc(C(=O)NC(C)C)cc3n3c(=O)n(CC(N)=O)nc23)cc1`, the activity change, negative = inhibition in test [1] was 2.3%; in test [2], 4.74%; in test [3], 8.31%; in test [4], -0.421%; in test [5] it was 4.19%.
For `CN1C[C@@H](NC(=O)NC2CCCCC2)C[C@H]1c1nc(-c2cnccn2)no1` the same measures were -3.88%, -5.53%, -1.06%, -6.09% and -6.05%.
